Reference: article PMC12136788
This is one part of the list.

T1: UNK ZnF1-3 (human, UniProt Q9C0B0 31-174)
T1 sequence: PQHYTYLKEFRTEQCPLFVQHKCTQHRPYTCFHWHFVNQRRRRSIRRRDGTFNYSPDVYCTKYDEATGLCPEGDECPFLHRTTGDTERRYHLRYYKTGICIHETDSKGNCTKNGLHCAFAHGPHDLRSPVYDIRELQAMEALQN

B1: 134020440_134020560_2516_3pUTR_ENSG00000166086_ENST00000529443|human|control|control (ssRNA)
RNA: GGGAGUUCUACAGUCCGACGAUCAUUAAACAAACUUAAAAAAAAAAAAUAGCAUUGGGGGCCCUAUUUUGUGAGCCAUCCAUAACCAAAAAGAGGUCUGUUACAGGAGCCCAAAGCUGGGACGCUACAUGGAAGACACCAGUGCAACAGAGGAUUGAGCAUCA
B2: 115631502_115631622_1917_3pUTR_ENSG00000148158_ENST00000374232|human|control|control (ssRNA)
RNA: GGGAGUUCUACAGUCCGACGAUCCACCAAUGCCUCCUAGGCCAAGACGAGUCAAUGCCCACAGAGGCCAAUUCCAGAGGGGCCAGGUUUCCACAGAAAGCAGCAGCUGCCUUCUGUUCCUGCCUCCUCCUCAUCCUUGAAAAGCAACAGAGGAUUGAGCAUCA
B3: chr2:119791414:119791415:+_ENSMUSG00000033943_ENSMUST00000110774|mus_mus|motif|central (ssRNA)
RNA: GGGAGUUCUACAGUCCGACGAUCUCCUACUUUACCAGAAAGCUUAGGUUUUUAAUUAUGACUGAAAGGGUAAGGGAAGAACGGUUCUGGAUAUGAAACAGUCUGCUGAAUGACAAAAUCCCUUCACUUUGGUAUUCCAUAAUACAACAGAGGAUUGAGCAUCA
B4: 215768714_215775229_1188_CDS_ENSG00000136636_ENST00000259154|human|control|control (ssRNA)
RNA: GGGAGUUCUACAGUCCGACGAUCUAUAGGAACAACAUCUUGAACCUGCCAGUGCUGAGUGACAGCAUUCCACACUCCCACUUUCCCUGUAUGACUCGUGGCCACCAACUGGUUACCAAUAAAGAAGAGAGCAUCUACAGGAACCAACAGAGGAUUGAGCAUCA
B5: chr1:163112212:163112213:-_ENSG00000143248_ENST00000313961|hu_hu|hu_hu_hu_mus_False|28_108 (ssRNA)
RNA: GGGAGUUCUACAGUCCGACGAUCUUUAUUUAUCCAGAAGAGUGAGUUACAUACUAGGCAAAGUAUUGGAUACAAUAAUCAGGAAACAAACACUAUUGGUCCAGAAUUUAAAAUAUAAUGAGCGAAGUGCUGGCACAGGACUUACAACAGAGGAUUGAGCAUCA
B6: chr7:151048522:151048523:+_ENSG00000013374_ENST00000566856|hu_mus|hu_hu_hu_mus_True|48_68 (ssRNA)
RNA: GGGAGUUCUACAGUCCGACGAUCCUGUUUCUUAUUUAUUACGAUCUUGAUGUAAUUUUCUUGAAAUCCAAAGGUUUCAGCUAUUUGGGACCUCAGUUCUCUACCAGUGACAUGCAAGCGGGUCUCCAACAAGCUUUUCUUAUCCAACAGAGGAUUGAGCAUCA
B7: chr3:139075817:139075818:+_ENSG00000175110_ENST00000310776|hu_hu|motif|central (ssRNA)
RNA: GGGAGUUCUACAGUCCGACGAUCUUAGGAAGCUGCAGAAUGGCGACUGAGUGCUUCUUGAUAAGUCUGCAGUGUUAGUUCGGUAUAGGCUCCCUUCUGUGCUUCUGUUUUUGCAAAGACCUUGAUUAAAUUUAUUCCCUCAGCCAACAGAGGAUUGAGCAUCA
B8: chrX:98862621:98862622:+_ENSMUSG00000034160_ENSMUST00000044475|mus_hu|mus_mus_mus_hu_False|38_68 (ssRNA)
RNA: GGGAGUUCUACAGUCCGACGAUCCUGCAUCUCCUUUAGAGUGUUUCCCAUAUUAGAGUAGGCAUCAGCAAAUGUAGGACUGAUUCGAAUAGCCUCCUUAUAGUGCAUCAGAGCUUCCUGCAGUUUUCCCUGCUGCUGCAGUACCAACAGAGGAUUGAGCAUCA
B9: chr7:92085846:92085847:+_ENSG00000157259_ENST00000287957|hu_hu|motif|central (ssRNA)
RNA: GGGAGUUCUACAGUCCGACGAUCGGGGCUACAGGCGUGAGCCACCACACCAGGCCUGGAAACCCAGUUUUAAUUUGUGAACGGCAAAUGGUUGGCAACUGAUUCCUUAAUUGUUAUUGCAGGAGUAGGCCCAACAUGAGUCCACAACAGAGGAUUGAGCAUCA
B10: chr5:128448638:128448639:+_ENSG00000066583_ENST00000173527|hu_hu|motif|central (ssRNA)
RNA: GGGAGUUCUACAGUCCGACGAUCAGCACUCGCCUUAAUUAGAUUCUGAAUUUCCUUGAAUUUUGGAUGGUCCUUAUCAGCGGCCAGCUGAAGCAGAACAGCCUCACUCGUGGUCACUAUGAUCCCGGUUCGAGCGAGACGCUCCAACAGAGGAUUGAGCAUCA
B11: chr1:151372964:151372965:+_ENSG00000159377_ENST00000290541|hu_mus|motif|central (ssRNA)
RNA: GGGAGUUCUACAGUCCGACGAUCCUUGGAGCGGCGGCUGUACAUGGCUCUUGUCAACCAUGAAUGAAUAGCUCUAGGGCGGUAGCUGUGUCCAUCUCCCAACAGCUCUUCAUCAAUCACCAUCUGGCCGAGAACUUGUUUCAACAACAGAGGAUUGAGCAUCA
B12: chr3:119217614:119217615:+_ENSG00000113845_ENST00000264244|hu_hu|motif|central (ssRNA)
RNA: GGGAGUUCUACAGUCCGACGAUCCUCUACAGAGAAAGCUCCGCGGUGCCGGUGGCGGCACCUCCAUGGCCUUCUCUCGACCGGCGGACAAACUUGAGCGCUCAGGACUUCAAGUCCUCGCGGACGUGCCGCGGGAGAGCGUAACAACAGAGGAUUGAGCAUCA
B13: chr15:69561275:69561276:+_ENSG00000138604_ENST00000261858|hu_hu|motif|central (ssRNA)
RNA: GGGAGUUCUACAGUCCGACGAUCUUCUUUUAAGUCAUACAGCCCAAUUAAAGAAUACAUAAAGCCAUUUAAAACAAAAGAGCGGGGUGUGGUUGGAUAUUCUUCAUACCAGUCAUGUUUAUUCAUAAACACAGCUUUAACUCCCAACAGAGGAUUGAGCAUCA
B14: chr11:46405157:46405158:+_ENSG00000110492_ENST00000395566|hu_hu|hu_hu_hu_mus_False|68_78 (ssRNA)
RNA: GGGAGUUCUACAGUCCGACGAUCCCCUCCCCACUUUGGGCACUUGGUGUGGGCGUGAAGGCAGGGCAUGAUUGAUUAGAGCUGACAGGAAGACAAAAGGCACUGGUGGGUUAUAUCUUGGGCCUGUGGGAGAGGAGGGCUCCGCAACAGAGGAUUGAGCAUCA
B15: chr5:69958400:69958401:+_ENSMUSG00000029208_ENSMUST00000154728|mus_hu|motif|central (ssRNA)
RNA: GGGAGUUCUACAGUCCGACGAUCGUCAUAAAAAUCUACCACAAUUUCAUUCAAAGGAAAGAGAUAUUUAAGCAUAACUCGGUUUUGAUCAAUAAAUAUCAUAUUCUUCUGAACUGCUCUUCGAGCCUCGCAAAGCAUCAUUAUCAACAGAGGAUUGAGCAUCA
B16: 90058019_90058139_173_3pUTR_ENSMUSG00000032363_ENSMUST00000113059|mouse|control|control (ssRNA)
RNA: GGGAGUUCUACAGUCCGACGAUCGAGGACGCGGGACGCCAGAGCGCACAGGAUCAGGAGGAGACUCGGACCACGGUGCAUGGCCCGGACGGGGUGGCCGCAGGACGACCCCUGUGCACUCCUUCGUCUACGCCGUUGCGUCCCCAACAGAGGAUUGAGCAUCA
B17: chr11:23187360:23187361:+_ENSMUSG00000020290_ENSMUST00000020538|mus_hu|motif|central (ssRNA)
RNA: GGGAGUUCUACAGUCCGACGAUCGCUCACCCAACCAGAUAUUAACUUUAAAGUUUCCCUUUUUACAGUUCGCAUACUUCGGAUCAAUGGUUGCUUUGUAACCAUUUCACCAUUAGCUUGGAUAGCUGCAGAAAUAUUUUCACUCAACAGAGGAUUGAGCAUCA
B18: 76570884_76571639_1238_3pUTR_ENSG00000138757_ENST00000395719|human|control|control (ssRNA)
RNA: GGGAGUUCUACAGUCCGACGAUCGGUUUUGCAAUUAAGAUUCUCUGAACUGGUUCAGAGUCAUCAAAAACCACAAAACCAAAAUUUGGAAGCUUUCCCCCAACACCCUUGGUAUUGAUGCGAAGUUCCACAACGUUUCCAAAACAACAGAGGAUUGAGCAUCA
B19: chr7:52357369:52357370:-_ENSMUSG00000003420_ENSMUST00000003512|mus_mus|FALSE|FALSE (ssRNA)
RNA: GGGAGUUCUACAGUCCGACGAUCGUGGCCUAGCAGUCGCUCCGGACAAGAGUUUAGCAGGAACUCGCUCUCCUUCCUGGCCGCAUCAGGCUGCUUCAUCCACAGAUUAGCAACGAUUUCCGUCUCAGGCCACUCCCCAGUCCACAACAGAGGAUUGAGCAUCA
B20: chr1:90180419:90180420:+_ENSG00000171488_ENST00000370454|hu_mus|FALSE|FALSE (ssRNA)
RNA: GGGAGUUCUACAGUCCGACGAUCAGCCCGGCAGUCUCCCAGCUCGGGAGGGAGGACUUCAAAGUGAUUGCCUUUGAUGUCUAAGUAGGAAAGAAAUAGUAGAUUUCCAAUUUUUGGUGAAAGUACGGAGAGGCUGUUUUUCCCCAACAGAGGAUUGAGCAUCA
B21: chr4:144460044:144460045:+_ENSG00000153147_ENST00000283131|hu_mus|hu_hu_hu_mus_False|1_48 (ssRNA)
RNA: GGGAGUUCUACAGUCCGACGAUCACGGUCCAUAGCCUGAAGAUCAACUUGCGGAUUCCAAUCUGAGUCAUAUAAAAUGACUACAUCAGCAGUCGCAAGAUUGAUGCCCAGACCACCAGCACGUGUGCUUAGCAUAAAAACAAACAACAGAGGAUUGAGCAUCA
B22: chr1:244855233:244855234:+_ENSG00000121644_ENST00000302550|hu_mus|hu_hu_hu_mus_True|28_78 (ssRNA)
RNA: GGGAGUUCUACAGUCCGACGAUCCAUCAGAUGGUAGGCGUUGCCCUUAUACUCUUUUCCCAGUUCUUCUACAAUUUUCUCUAUAUCAUCUUCUAGAAAGUCCGUACUCCCUAAAACAACAGCUUCUUUAAAUUUAAAUGUUUCCAACAGAGGAUUGAGCAUCA

Biological target: T1, UNK ZnF1-3
Assay: nsRBNS (natural sequence RNA bind-n-seq); RBNS binding buffer (assumed for nsRBNS): 25 mM Tris pH 7.5, 150 mM KCl, 3 mM MgCl2, 0.01% Triton X-100, 500 ug/ml BSA, 20 U/ml SUPERase-In, 4 C; UNK is unkempt and MSI1 is Musashi-1; names of the RNAs are library labels; protein concentration not given here; high values mean tight binding

Binder	binding signal [enrichment R]
B1	3.05
B2	0.411
B3	1.31
B4	1.48
B5	2.74
B6	0.581
B7	0.849
B8	1.2
B9	1.67
B10	0.665
B11	0.704
B12	0.271
B13	1.41
B14	2.07
B15	0.78
B16	0.26
B17	0.481
B18	0.635
B19	0.744
B20	1.97
B21	0.636
B22	1.27
